Assay results from paper PMC11436953 (Nature Communications, 2024).

Molecular target: the molecule itself
Assay: thioflavin T fluorescence aggregation kinetics

B1: recombinant peptide Aβ42 (peptide)
chain: not shown
  binding result: binds
